Data: PubChem BioAssay AID463173 (ICCB-Longwood Screening Facility, Harvard Medical School, 2010)
Hit rate of the full screen: of about 52,000 compounds, about 1,700 (3.3%) were called active. Rule as the data show it: active = survival mostly below about 52% (no sharp cut-off); inactive = mostly above about 56%. The list shows a part of the results.

system: Wild type; assay: growth inhibition of S. aureus wild type versus tarO mutant, primary screen, teichoic acid synthesis inhibitors, RN4220, OD600 (AID 463173); settings: S. aureus RN4220 wild type/DeltatarO growth, OD600, 18 h, stronger effect = lower value, screened at 18.75 µg/mL (by protocol)

SMILES	survival
COc1ccc(C(=O)Nc2cccc(OCc3cc(=O)n4c5c(sc4n3)CCCC5)c2)cc1	inactive: 80%
Cn1c(=O)c2c(nc3n(-c4ccc(O)cc4)c(-c4ccc(Br)cc4)cn23)n(C)c1=O	inactive: 142%
CC1=C(C(=O)Nc2cccnc2)C(c2ccc(Cl)cc2)n2nc(-c3ccccc3)nc2N1 (configuration not stated)	inactive: 71%
COc1ccc(OC)c(S(=O)(=O)NCc2cccn2Cc2cccc(C)c2)c1	inactive: 69%
Nc1cc(N)nc(SCCN2CCOCC2)n1	inactive: 115%
Cc1ccc(C)c(NC(=O)CSc2c3c(nc4ccc(Cl)cc24)CCCC3)c1	inactive: 83%
COc1cn(CC(=O)Nc2cccc(C)c2C)c(CN2CCCCC2)cc1=O	inactive: 99%
COc1cccc(C(=O)c2cn(CC(=O)NCc3ccccc3)c3nc(C)ccc3c2=O)c1	inactive: 71%
COc1ccc(OCc2nc3c4c(-c5ccccc5)c(-c5ccccc5)oc4ncn3n2)cc1	inactive: 71%
COc1ccc(CNC(=O)CSc2nc3ccccc3nc2Cc2ccccc2OC)cc1	inactive: 65%
COC(=O)c1sc(NC(=O)/C=C/c2ccc(OC)c(OC)c2)c(C(=O)OC)c1C	inactive: 55%
COc1ccccc1NC(=O)CSc1nc2ccccc2c2nc(-c3ccccc3)nn12	inactive: 72%
COc1ccccc1-c1cc(C(=O)Nc2ccccc2C(F)(F)F)no1	inactive: 95%
CC(C)NC(=O)CCCN1C(=O)CCn2nc(-c3cccn3C)cc21	inactive: 79%
COC(=O)c1cc2c(cc1NC(=O)c1cnn(-c3ccc(C)cc3)c1-n1cccc1)OCO2	inactive: 88%
Cc1[nH]c2ccccc2c1C1N2CC3(C)CN1CC(C)(C2)C3=O (configuration not stated)	inactive: 62%
Cc1cccc(CNC(=O)CSCc2cnn(-c3ccccc3)c2-n2cccc2)c1	inactive: 75%
N/N=C1\C(=N/O)CCc2nonc21	inactive: 100%
Cc1cc(=O)[nH]c(SCC(=O)N2CCCCC2)n1	inactive: 103%
COc1cc(C(=O)N2CCN(C(=O)C(Cc3cc(C)ccc3C)NC(C)=O)CC2)cc(OC)c1OC (configuration not stated)	inactive: 95%
CCOC(=O)c1ccc(NS(=O)(=O)c2cc(-c3onc(C)c3C)ccc2C)cc1	inactive: 66%
Cc1nn(C)c2c1c(C(F)(F)F)cc(=O)n2C(C)C(=O)NCc1ccc(Cl)cc1 (configuration not stated)	inactive: 83%
O=C(Nc1ccc(Br)cc1F)N1CCC(CN2CCCC2)CC1	inactive: 99%

SMILES	survival
CC1=C(C(=O)OCc2ccccc2)C(c2cccc(Cl)c2Cl)CC(=O)N1 (configuration not stated)	inactive: 106%
COc1cc(OC)c(C2Nc3c(C)cccc3-c3cc(C)nn32)cc1OC (configuration not stated)	inactive: 142%
COC(=O)c1ccc(NC(=O)CC2C(=O)N(c3ccc(Cl)cc3)C(=O)N2Cc2ccco2)cc1 (configuration not stated)	inactive: 32%
CCN1C(=O)c2ccccc2S(=O)c2ccc(C(=O)N3CCN(c4cccc(C)c4)C(C)C3)cc21 (configuration not stated)	inactive: 149%
CC1=C(c2ccc(C)cc2)S(=O)(=O)NC1=NCc1cccc(F)c1	inactive: 91%
COc1ccc(NC(=O)CN2CCCN(Cc3ccc(Cl)cc3)S2(=O)=O)cc1Cl	inactive: 67%
O=C(CN1C(=O)CSC1=O)CN1C(=O)CSC1=O	inactive: 101%
CCn1c(CSc2ncccn2)nnc1SCC(=O)N1CCc2ccccc21	inactive: 102%
O=C1CCC(C2CCC3(CC2)OCCO3)CC1	inactive: 103%
CCN1c2ccccc2-c2nc(SCC(=O)NCc3ccc(C)cc3)ncc2S1(=O)=O	inactive: 79%
CCOC(=O)c1ccc(NC(=O)Cn2cc(C(=O)c3ccc(CC)cc3)c(=O)c3ccc(C)nc32)cc1	inactive: 143%
CN(c1ccc(C(=O)NCc2cccnc2)cc1)S(C)(=O)=O	inactive: 111%
O=S(=O)(c1cccc2nsnc12)N(CCOc1ccccc1)C1CCCCC1	inactive: 99%
CCC(=O)Nc1cccc(C)c1	inactive: 115%
COc1ccc(CNC(=O)c2cnc3sc(N4CCCCCC4)nn3c2=O)cc1	inactive: 70%
CCOC(=O)c1cnc2ccccc2c1NCCc1ccc(OC)c(OC)c1	inactive: 53%
CC1(C)CC2(CCO1)NNC(=S)NN2	inactive: 99%
COC(=O)C1=C(c2ccccc2)c2ccccc2S(=O)(=O)N1CC(=O)Nc1ccc(F)c(F)c1	inactive: 63%
Cc1ccc(CNC(=O)Cn2c(=O)cc(C(F)(F)F)c3c(C)nn(C)c32)cc1	inactive: 74%
Cc1sc2ncn(CC(=O)N3CCN(c4ccc(F)cc4)CC3)c(=O)c2c1S(=O)(=O)N1CCC(C)CC1	inactive: 84%
Cc1ccc(CNC(=O)C2CCN(S(=O)(=O)c3c(C)noc3/C=C/c3cccs3)CC2)cc1	inactive: 102%
CCCCOc1ccc(-c2nnc(-c3ccco3)n2-c2ccccc2)cc1	inactive: 110%
CCOc1ccc(-c2nc(Cn3c(=O)cc(-c4ccccc4)c4c(C)nn(C)c43)c(C)o2)cc1	inactive: 121%

SMILES	survival
O=C(O)CCC(=O)Nc1ccc(-c2ccccc2)cc1	inactive: 100%
Cc1cccc(OCc2nnc(SCC(=O)N(C(C)C)C(C)C)n2Cc2ccco2)c1C	inactive: 113%
O=C(CCS(=O)(=O)c1cc2c(cc1Cl)NC(=O)CO2)NCc1ccccc1Cl	inactive: 88%
CSc1ncc(C(=O)NCc2cccc(F)c2)c(-c2ccccc2)n1	inactive: 82%
CC(C)Oc1ccc(CNC(=O)c2ccc(CN3CC(=O)N4CCCCC4C3=O)cc2)cc1 (configuration not stated)	inactive: 124%
Oc1c(C(c2ccc(Cl)cc2Cl)N2CCN(c3ccccc3)CC2)sc2nc(-c3ccco3)nn12 (configuration not stated)	inactive: 75%
O=C(NCc1cccc(Cl)c1)c1ccc(NC(=O)N2CC3CCCN3c3ccccc32)cc1 (configuration not stated)	inactive: 66%
O=C(Nc1ccc2nc(SCC(=O)N3CCc4ccccc43)sc2c1)c1ccc(F)cc1	inactive: 80%
O=c1c2oc3ccccc3c2n(Cc2ccccc2Cl)c(=O)n1Cc1ccco1	inactive: 84%
COc1ccc(CN(Cc2ccco2)c2cnc(S(C)(=O)=O)nc2C(=O)Nc2ccc(C)c(Cl)c2)cc1	inactive: 82%
CCCn1c(SCC(N)=O)nnc1C(C)C	inactive: 101%
CCCc1nc(SC)ncc1C(=O)N1CCN(c2ccc(Cl)cc2)CC1	inactive: 63%
Cc1ccc(NC(=O)c2cnn3c(C(F)F)cc(-c4ccccc4)nc23)cc1F	inactive: 86%
CCCn1c(SCc2nc(-c3ccc(OC)c(OC)c3)no2)nnc1-c1ccccc1	inactive: 88%
CC(C)Oc1ccc(C(=O)N2CCN(CCc3ccccn3)CC2)cc1	inactive: 86%
O=C(NCCc1ccccc1)C1CCC(CNS(=O)(=O)c2ccccc2)CC1 (configuration not stated)	inactive: 81%
CC1CCN(C(c2ccccc2)c2nnnn2Cc2ccc(F)cc2)CC1 (configuration not stated)	inactive: 118%
CC1CCc2nn(CC(=O)Nc3ccccc3Cl)cc2C1 (configuration not stated)	inactive: 77%
COc1ccc(OC)c(CNC(=O)c2ccc(-c3nc(CSc4ccccc4)c(C)o3)cc2)c1	inactive: 129%
CCOc1ccc(NC(=O)NCCc2c(C)nn(C)c2C)cc1	inactive: 60%
CCSc1nnc2c3cc(Br)ccc3n(C)c2n1	inactive: 96%
CN(Cc1ccccc1)S(=O)(=O)c1ccc(-c2cnc(C3CC3)o2)cc1	inactive: 81%
Cc1c(C2=CCN(S(=O)(=O)c3cccc(Cl)c3)CC2)c2ccccc2n1CC(=O)N1CCCC1	inactive: 97%

SMILES	survival
Cc1ccc(NC(=O)C(C)Sc2nc(=O)cc(N)n2-c2cccc(C)c2)cc1 (configuration not stated)	inactive: 77%
COc1cccc(S(=O)(=O)N2CCN(Cc3ccc4c(c3)OCO4)CC2)c1	inactive: 71%
COc1ccc(NC(=O)C(=O)NCC(c2cccnc2)N2CCc3ccccc32)cc1OC (configuration not stated)	inactive: 93%
CCc1ccc(-c2nc3c(c(SCc4ccccc4F)n2)Cc2c(CO)cnc(C)c2O3)cc1	inactive: 83%
Cc1cccc(N2CCN(C(=O)CN3CCSc4ccccc43)CC2C)c1 (configuration not stated)	inactive: 59%
CC(NCc1ccc2c(c1)OCO2)C(=O)NC1CCCCC1 (configuration not stated)	inactive: 103%
Cc1ccc(C)c(NC(=O)CN2C(=O)COc3ccc(Cl)cc32)c1	inactive: 77%
O=C(Nc1c(C(=O)Nc2ccc(F)cc2)oc2ccccc12)c1ccccc1F	inactive: 30%
Cn1c(=O)nc2n(-c3ccc(Cl)c(Cl)c3)c3cc(Cl)ccc3cc-2c1=O	inactive: 76%
COc1ccccc1CNC(=O)C1CCCN(c2nnc(-n3c(C)ccc3C)s2)C1 (configuration not stated)	inactive: 84%
CC1=C(C(=O)OCC2CCCCC2)C(c2ccccc2F)CC(=O)N1 (configuration not stated)	inactive: 87%
O=S(=O)(Nc1ccncc1)c1ccccc1	inactive: 114%
Cc1nc2nc(SCC(=O)NCCc3ccccc3)nn2c(C)c1Cc1c(F)cccc1Cl	inactive: 65%
Cc1ccccc1CNS(=O)(=O)c1csc(C(N)=O)c1	inactive: 128%
COc1ccc(C(=O)N(Cc2ccc(C(C)C)cc2)C2CCS(=O)(=O)C2)cc1 (configuration not stated)	inactive: 86%
NC1CCSc2ccccc21 (configuration not stated)	inactive: 103%
Cc1ccc(C(C)C)c(OCC(=O)N2CCC(c3nc4ccccc4o3)CC2)c1	inactive: 103%
CCOc1ccccc1C(=O)Nc1ccc2c(c1)N(C)C(=O)c1ccccc1S2	inactive: 67%
CNC(=O)C1c2ccccc2Oc2ccccc21	inactive: 116%
C/C(CCc1ccc2c(c1)OCO2)=N\N=C1/NC(=O)CC(C(=O)O)S1 (configuration not stated)	inactive: 106%
CCn1c(SCCOc2ccccc2F)nc2ccccc21	active: -1%
Cc1nn(-c2ccc(N3CCOCC3)nn2)c(C)c1CCC(=O)NCc1ccc(OC(C)C)cc1	inactive: 64%
Cc1c(C2=CCN(S(=O)(=O)c3ccc(CC(C)C)cc3)CC2)c2ccccc2n1CC(=O)N1CCCC1	inactive: 126%
